Laboratory results as given in PubChem BioAssay AID1768 (National Center for Advancing Translational Sciences (NCATS), 2009).
The whole screen tested about 270,000 compounds, of which about 620 (0.23%) were called active. The shares of active, inactive and inconclusive entries below differ from those in the screen. Calls come from the whole dose curve; as a rule, active = well fitted inhibition curve with a large enough effect in the polarisation, with a control signal flat (not every such curve was filed as active); inconclusive = small, poorly fitted or top-dose-only effect, or effect the other way, or a change in a side signal; inactive = no such curve, though single readings can be large or run the other way; the % refers to the polarisation. Where the call is inconclusive, the potency comes from a doubtful curve fit. “Side channel” marks fits to a control or component signal instead of the main read-out.

molecular target: Menin (Homo sapiens) (UniProt O00255); experiment: qHTS Assay for Inhibitors Targeting the Menin-MLL Interaction in MLL Related Leukemias: Competition With Texas Red Labeled MLL-derived Mutant Peptide; conditions: fluorescence polarization; FP activity change, negative = inhibition: at 61.6 µM (top of the series); for FP activity change, negative = inhibition: % of control where 0% means no effect
Sequence of UniProt O00255 (O00255 whole entry, looked up): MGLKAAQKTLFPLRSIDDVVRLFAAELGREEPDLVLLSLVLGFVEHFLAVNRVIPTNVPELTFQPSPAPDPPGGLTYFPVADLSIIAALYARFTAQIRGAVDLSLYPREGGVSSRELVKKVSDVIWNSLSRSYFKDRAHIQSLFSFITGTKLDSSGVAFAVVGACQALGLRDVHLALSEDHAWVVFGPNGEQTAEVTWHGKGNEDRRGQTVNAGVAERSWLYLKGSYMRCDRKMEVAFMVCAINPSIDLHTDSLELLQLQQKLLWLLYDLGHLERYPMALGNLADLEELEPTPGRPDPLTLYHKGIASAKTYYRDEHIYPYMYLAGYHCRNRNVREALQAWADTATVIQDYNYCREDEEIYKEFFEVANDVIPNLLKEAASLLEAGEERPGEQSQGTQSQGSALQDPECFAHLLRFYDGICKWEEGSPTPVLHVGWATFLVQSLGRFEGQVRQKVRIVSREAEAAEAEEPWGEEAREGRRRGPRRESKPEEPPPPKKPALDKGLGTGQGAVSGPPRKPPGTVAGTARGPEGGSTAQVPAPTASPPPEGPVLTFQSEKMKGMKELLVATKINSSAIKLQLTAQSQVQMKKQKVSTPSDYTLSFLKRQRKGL
Potency is the fitted concentration of half-maximal effect; tags give direction and shape of the fitted curve or compound fluorescence and quenching.

Potency, inactive:
CCc1ccc(C(=O)c2cnc3ccc(OC)cc3c2N2CCN(CC)CC2)cc1, CC(C)CN1CCC(=O)N([C@H](COc2ccccc2)c2ccccc2)CC1, Cn1c(N=Nc2ccccc2)nc2ccccc21, O=C(NCCc1ccccn1)c1cc(-c2cccc3ccccc23)nc2ccccc12, CCCCN1C(=O)C(=O)N(CC(=O)Nc2ccccc2C(=O)OCC)C1=O, CCN(CC)S(=O)(=O)c1cccc(S(=O)(=O)N2CCCCC2)c1, CC(C)C[C@H](NC(=O)CNC(=O)[C@H](C)NC(=O)[C@H](CC(C)C)NC(=O)[C@H](CCCNC(=N)N)NC(=O)[C@H](Cc1cnc[nH]1)NC(=O)[C@@H](NC(=O)[C@@H](N)C(C)C)[C@@H](C)O)C(=O)N[C@@H](CC(C)C)C(=O)N[C@@H](CO)C(=O)N[C@@H](CCCNC(=N)N)C(=O)N[C@@H](CO)C(=O)NCC(=O)NCC(=O)N[C@H](C(=O)N[C@H](C(=O)N[C@@H](CCCCN)C(=O)N[C@@H](CC(N)=O)C(=O)N[C@@H](CC(N)=O)C(=O)N[C@@H](Cc1ccccc1)C(=O)N[C@H](C(=O)N1CCC[C@H]1C(=O)N[C@H](C(=O)N[C@@H](CC(N)=O)C(=O)N[C@H](C(=O)NCC(=O)N[C@@H](CO)C(=O)N[C@@H](CCCCN)C(=O)N[C@@H](C)C(=O)N[C@@H](Cc1ccccc1)C(N)=O)C(C)C)[C@@H](C)O)C(C)C)C(C)C)C(C)C, CCOC(=O)c1c(C)[nH]c2cc(Br)c(O)cc12, CCOc1cc(/C=N/NC(=O)CN(CCc2ccccc2)S(=O)(=O)c2ccc(NC(C)=O)cc2)ccc1O

Potency, inconclusive:
CC(C)(C)c1ccc(C(=O)N2CCC(C(=O)c3ccccc3)CC2)cc1 4.47 µM [inhibitor, full curve, poor fit], O=C(Nc1nc2ccccc2n1Cc1ccc(Cl)cc1)c1ccco1 8.91 µM [quencher, side channel, partial curve], O=C(CN1C(=O)/C(=C/c2cccc(Cl)c2)SC1=S)NC1C=CS(=O)(=O)C1 (stereo not drawn) 22.4 µM [quencher, side channel, partial curve], CCc1ccc(-c2nc(CS(=O)CC(=O)NCCN3CCCCCC3)c(C)o2)cc1 (stereo not drawn) 11.2 µM [fluorescent, side channel, partial curve], Cc1cccc(NC(=O)c2ccc(COc3ccccc3[N+](=O)[O-])o2)n1 28.2 µM [quencher, side channel, single point], Cc1ccc(-n2c(Cc3cccn3C)nnc2SCC(=O)NCc2ccco2)cc1 15.8 µM [fluorescent, side channel, partial curve], Cc1ccc(C(=O)Nc2nc3ccccc3s2)s1 1.41 µM [quencher, side channel, full curve, poor fit], CN(C)c1ccc(N/C=C/C(=O)c2ccccc2)cc1 31.6 µM [quencher, side channel, single point], COc1ccc(NC(=O)C(OC(=O)c2ccc([N+](=O)[O-])o2)c2ccccc2)cc1Cl (stereo not drawn) 20 µM [quencher, side channel, partial curve], O=C(c1ccc([N+](=O)[O-])cc1)c1cc2ccc(O)cc2oc1=O 25.1 µM [quencher, side channel, single point], Cc1c(C)n(Cc2ccccc2)c2ncnc(NCCCN(C)C)c12 31.6 µM [inhibitor, partial curve], COc1ccc(-c2nc(C(=O)NCC3CCCO3)cc3c2[nH]c2ccccc23)cc1 (stereo not drawn) 14.1 µM [quencher, side channel, partial curve], CC(=O)Nc1cc(-c2nn(CC(=O)N3CCCCC3)c(=O)c3ccccc23)ccc1N1CCOCC1 28.2 µM [inhibitor, partial curve], CCNC(=S)N(CCc1c(C)[nH]c2ccc(C)cc12)Cc1cccs1 8.91 µM [quencher, side channel, partial curve], CCOc1cc(/C=C\c2nc(O)c([N+](=O)[O-])c(=O)[nH]2)ccc1OC(C)CC (stereo not drawn) 25.1 µM [quencher, side channel, partial curve], CC(C)OC(=O)c1c(NC(=O)C2CC=CCC2C(=O)O)sc2c1CCCCC2 (stereo not drawn) 35.5 µM [inhibitor, single point], CC1=Nc2ccccc2/C1=C/c1c(N)n2c(S(=O)(=O)CC(C)C)nsc2nc1=O 10 µM [quencher, side channel, partial curve], O=C(Cc1ccccc1)NCCc1cccc(Cl)c1 3.55 µM [inhibitor, partial curve], NC(=O)c1c(NC(=O)COC(=O)CSc2nnc(-c3ccc(Cl)cc3)o2)sc2c1CCC2 31.6 µM [quencher, side channel, single point], O=C(c1ccc([N+](=O)[O-])s1)N1CCN(c2ccc(C(F)(F)F)cn2)CC1 25.1 µM [quencher, side channel, single point], Oc1ccc(Br)cc1-c1n[nH]c(=S)n1Cc1ccccc1 1.41 µM [inhibitor, full curve, poor fit], CCCCC(=O)Nc1ccc(C(=O)NNC(=S)NC(=O)c2cccs2)cc1 31.6 µM [quencher, side channel, single point], Cc1ccc(-c2cc3nc(-c4ccccc4)cc(N)n3n2)cc1 8.91 µM [quencher, side channel, partial curve], Cc1cc(C)c(S(=O)(=O)/N=C2/C=C(Sc3ncn[nH]3)C(=O)c3ccccc32)cc1C 14.1 µM [quencher, side channel, partial curve], Cc1ccc(C(=O)ON=C2CCN(S(=O)(=O)c3ccccc3)CC2)cc1 35.5 µM [inhibitor, partial curve], CCc1ccc(C(O)(CNCc2ccccc2)c2ccccc2)cc1 (stereo not drawn) 3.55 µM [fluorescent, side channel, full curve], COc1cnc(-c2ccccn2)nc1Oc1ccc(C(C)(C)C)cc1 1.78 µM [inhibitor, full curve], O=C1c2ccccc2C2=Nc3ccccc3SC(c3ccc(Cl)cc3)C12 (stereo not drawn) 11.2 µM [quencher, side channel, partial curve], O=C(CSc1ccccn1)Nc1ccc(NC(=O)CSc2ccccn2)cc1 17.8 µM [inhibitor, partial curve], O=C(Cc1cccs1)N1CCN(c2ccc([N+](=O)[O-])cc2)CC1 25.1 µM [quencher, side channel, partial curve], O=C(OCC(=O)c1c[nH]c2ccccc12)c1ccc([N+](=O)[O-])s1 31.6 µM [quencher, side channel, single point], Cc1nn(Cc2ccc([N+](=O)[O-])cc2)c(=O)n1-c1ccccc1 44.7 µM [inhibitor, partial curve, poor fit], O=C(O)c1cccc(-n2nnnc2SCc2ccccc2Cl)c1 39.8 µM [quencher, side channel, single point], COc1cccc(C(=O)C2CCCN(Cc3cccn3-c3ccccn3)C2)c1 (stereo not drawn) 14.1 µM [fluorescent, side channel, partial curve], CC(NCc1ccc(OCc2ccc(Cl)cc2)cc1)C(O)c1ccccc1 (stereo not drawn) 7.94 µM [fluorescent, side channel, partial curve], O=C(Nc1ccc(OC(F)F)c(Cl)c1)c1cccc(OC(F)F)c1 5.01 µM [quencher, side channel, full curve], O=C(Cc1ccccc1)NNC(=O)c1ccc(NC(=O)c2ccccc2)cc1 28.2 µM [inhibitor, single point], CCc1ccc2oc(-c3cc(N)ccc3O)nc2c1 14.1 µM [quencher, side channel, partial curve], O=C(NCc1ccccn1)c1ccc2nc(-c3ccco3)c(-c3ccco3)nc2c1 28.2 µM [quencher, side channel, partial curve], O=C(N/N=C/c1cc([N+](=O)[O-])ccc1O)c1cc(-c2ccccc2)nc2ccccc12 1.78 µM [quencher, side channel, full curve], CC(C)OC(=O)CSc1nc(N2CCOCC2)c2c(c1C#N)CC(C)(C)OC2 7.08 µM [fluorescent, side channel, partial curve], O=c1[nH]c(N/N=C/c2ccccc2)nc2ccccc12 39.8 µM [inhibitor, single point], COC(=O)\C(C(C)=O)=C(/C=C/C=C/C=C/N(C)C)N(C)C 25.1 µM [fluorescent, side channel, single point]

FP activity change, negative = inhibition, inactive:
C[C@H]1Cc2c(-c3ccccc3)nc3c(c2CO1)CN(C(=O)c1cc(I)ccc1F)CC3 -1.16% [at 11.7 µM]
